In the supplement of paper PMC8728848:
The list shows a part of the results.

Tests used:
Test in all cases: glycan array binding signal (z-score within array); higher = stronger binding
Details in all cases: glycan notation: IUPAC condensed, linker removed
[1] = biological target: Neu5Ac(a2-6)Gal(b1-4)GlcNAc(b1-2)Man(a1-6)[Man(a1-3)]Man(b1-4)GlcNAc(b1-4)GlcNAc
How it was run: (§1)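 Glycan array binding is given as a within-array Z-score, which can be read as non-binding when negative. The arrays, 3228 of them, came from the Consortium for Functional Glycomics database and were retained only where the protein sequence was available. Z-scores were averaged across arrays of the same protein sequence at different concentrations or buffers and across linkers.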

[2] = biological target: Neu5Ac(a2-6)Gal(b1-4)GlcNAc(b1-3)Gal(b1-3)GlcNAc
How it was run: as §1

[3] = biological target: Neu5Ac(a2-6)Gal(b1-4)GlcNAc(b1-3)Gal(b1-4)GlcNAc
How it was run: as §1

[4] = biological target: Neu5Ac(a2-6)Gal(b1-4)GlcNAc(b1-3)Gal(b1-4)GlcNAc(b1-3)Gal(b1-4)GlcNAc
How it was run: as §1

[5] = biological target: Neu5Ac(a2-6)Gal(b1-4)GlcNAc(b1-3)Gal(b1-4)[Fuc(a1-3)]GlcNAc(b1-3)Gal(b1-4)[Fuc(a1-3)]GlcNAc
How it was run: as §1

[6] = biological target: Neu5Ac(a2-6)Gal(b1-4)GlcNAc(b1-3)GalNAc
How it was run: as §1

[7] = biological target: Neu5Ac(a2-6)Gal(b1-4)GlcNAc(b1-3)[Neu5Ac(a2-6)Gal(b1-4)GlcNAc(b1-6)]GalNAc
How it was run: as §1

[8] = biological target: Neu5Ac(a2-6)Gal(b1-4)GlcNAc(b1-6)GalNAc
How it was run: as §1

[9] = biological target: Neu5Ac(a2-6)Gal(b1-4)GlcNAc(b1-6)[Gal(b1-3)GlcNAc(b1-3)]Gal(b1-4)Glc
How it was run: as §1

[10] = biological target: Neu5Ac(a2-6)Gal(b1-4)GlcNAc6S
How it was run: as §1

Neu5Ac(a2-6)GalNAc = biological target: Neu5Ac(a2-6)GalNAc
How it was run: as §1

[11] = biological target: Neu5Ac(a2-6)GalNAc(b1-4)GlcNAc
How it was run: as §1

[12] = biological target: Neu5Ac(a2-6)GalNAc(b1-4)GlcNAc6S
How it was run: as §1

[13] = biological target: Neu5Ac(a2-6)GlcNAc(b1-4)GlcNAc
How it was run: as §1

[14] = biological target: Neu5Ac(a2-6)GlcNAc(b1-4)GlcNAc(b1-4)GlcNAc
How it was run: as §1

Neu5Ac(a2-8)Neu5Ac = biological target: Neu5Ac(a2-8)Neu5Ac
How it was run: as §1

[15] = biological target: Neu5Ac(a2-8)Neu5Ac(a2-3)Gal(b1-3)GalNAc(b1-4)[Neu5Ac(a2-8)Neu5Ac(a2-3)]Gal(b1-4)Glc
How it was run: as §1

[16] = biological target: Neu5Ac(a2-8)Neu5Ac(a2-3)Gal(b1-4)Glc
How it was run: as §1

[17] = biological target: Neu5Ac(a2-8)Neu5Ac(a2-3)[Gal(b1-3)GalNAc(b1-4)]Gal(b1-4)Glc
How it was run: as §1

[18] = biological target: Neu5Ac(a2-8)Neu5Ac(a2-3)[GalNAc(b1-4)]Gal(b1-4)Glc
How it was run: as §1

[19] = biological target: Neu5Ac(a2-8)Neu5Ac(a2-8)Neu5Ac
How it was run: as §1

[20] = biological target: Neu5Ac(a2-8)Neu5Ac(a2-8)Neu5Ac(a2-3)Gal(b1-4)Glc
How it was run: as §1

[21] = biological target: Neu5Ac(a2-8)Neu5Ac(a2-8)Neu5Ac(a2-3)[GalNAc(b1-4)]Gal(b1-4)Glc
How it was run: as §1

[22] = biological target: Neu5Ac(a2-8)Neu5Ac(a2-8)Neu5Ac(a2-8)Neu5Ac(a2-3)[GalNAc(b1-4)]Gal(b1-4)Glc
How it was run: as §1

[23] = biological target: Neu5Ac(b2-6)Gal(b1-4)GlcNAc
How it was run: as §1

Neu5Ac(b2-6)GalNAc = biological target: Neu5Ac(b2-6)GalNAc
How it was run: as §1

[24] = biological target: Neu5Ac9Ac(a2-3)Gal(b1-3)GlcNAc
How it was run: as §1

[25] = biological target: Neu5Ac9Ac(a2-3)Gal(b1-4)GlcNAc
How it was run: as §1

[26] = biological target: Neu5Ac9Ac(a2-6)Gal(b1-4)GlcNAc
How it was run: as §1

[27] = biological target: Neu5Gc(a2-3)Gal(b1-3)GlcNAc
How it was run: as §1

[28] = biological target: Neu5Gc(a2-3)Gal(b1-3)[Fuc(a1-4)]GlcNAc
How it was run: as §1

Neu5Gc(a2-3)Gal(b1-4)Glc = biological target: Neu5Gc(a2-3)Gal(b1-4)Glc
How it was run: as §1

[29] = biological target: Neu5Gc(a2-3)Gal(b1-4)GlcNAc
How it was run: as §1

[30] = biological target: Neu5Gc(a2-3)Gal(b1-4)[Fuc(a1-3)]GlcNAc
How it was run: as §1

[31] = biological target: Neu5Gc(a2-6)Gal(b1-4)GlcNAc
How it was run: as §1

Neu5Gc(a2-6)GalNAc = biological target: Neu5Gc(a2-6)GalNAc
How it was run: as §1

[32] = biological target: Neu5Gc(b2-6)Gal(b1-4)GlcNAc
How it was run: as §1

B1: OrfX (Escherichia coli), Q9X4B6_ECOLX (protein)
chain: MIKIARIAVTLGLLSSLGAQAYAAGLVVNDNDLRNDLAWLSDRGVIHLSLSTWPLSQEEIARALKKAKPSYSSEQVVLARINQRLSALKADFRVTGYTSTDQPGTPQGFGQTQPADNSLGLAFNNSGEWWDVHLQGNVEGGERISNGSRFNANGAYGAVKFWNQWLSFGQVPQWWGPGYEGSLIRGDAMRPMTGFLMQRAEQAAPETWWLRWVGPWQYQISASQMNQYTAVPHAKIIGGRFTFTPFQSLELGASRIMQWGGEGRPQSFSSFWDGFTGHDNTGTDNEPGNQLAGFDFKFKLEPTLGWPVSFYGQMVGEDESGYLPSANMFLGGVEGHHGWGKDTVNWYVEAHDTRTNMSRTNYSYTHHIYKDGYYQQGYPLGDAMGGDGQLIAGKVELITEDNQRWSTRLVYAKVNPENQSINKAFPHADTLKGLQLGWSGDVYQSVRLNTSLWYTNANNSDSDDVGASAGIEIPFSL
[1]
  glycan array binding signal (z-score): -0.298
[2]
  glycan array binding signal (z-score): -0.328
[3]
  glycan array binding signal (z-score): -0.05
[4]
  glycan array binding signal (z-score): -0.288
[5]
  glycan array binding signal (z-score): -0.292
[6]
  glycan array binding signal (z-score): 0.36
[7]
  glycan array binding signal (z-score): -0.196
[8]
  glycan array binding signal (z-score): 3.4
[9]
  glycan array binding signal (z-score): -0.382
[10]
  glycan array binding signal (z-score): -0.224
Neu5Ac(a2-6)GalNAc
  glycan array binding signal (z-score): -0.124
[11]
  glycan array binding signal (z-score): -0.2
[12]
  glycan array binding signal (z-score): -0.259
[13]
  glycan array binding signal (z-score): -0.189
[14]
  glycan array binding signal (z-score): -0.271
Neu5Ac(a2-8)Neu5Ac
  glycan array binding signal (z-score): -0.167
[15]
  glycan array binding signal (z-score): -0.409
[16]
  glycan array binding signal (z-score): -0.319
[17]
  glycan array binding signal (z-score): -0.2
[18]
  glycan array binding signal (z-score): -0.358
[19]
  glycan array binding signal (z-score): -0.166
[20]
  glycan array binding signal (z-score): -0.305
[21]
  glycan array binding signal (z-score): -0.388
[22]
  glycan array binding signal (z-score): 0.018
[23]
  glycan array binding signal (z-score): -0.213
Neu5Ac(b2-6)GalNAc
  glycan array binding signal (z-score): -0.166
[24]
  glycan array binding signal (z-score): -0.162
[25]
  glycan array binding signal (z-score): -0.165
[26]
  glycan array binding signal (z-score): -0.223
[27]
  glycan array binding signal (z-score): -0.125
[28]
  glycan array binding signal (z-score): -0.152
Neu5Gc(a2-3)Gal(b1-4)Glc
  glycan array binding signal (z-score): -0.186
[29]
  glycan array binding signal (z-score): -0.386
[30]
  glycan array binding signal (z-score): -0.187
[31]
  glycan array binding signal (z-score): -0.233
Neu5Gc(a2-6)GalNAc
  glycan array binding signal (z-score): -0.211
[32]
  glycan array binding signal (z-score): -0.101
